In all, about 200,000 compounds went through this assay and about 10 (0.005%) were called active. The shares of active, inactive and inconclusive entries below differ from those in the screen. Calls follow the shape of the dose curve; as a rule, active = well fitted inhibition curve with a large enough effect; inconclusive = small, poorly fitted or top-dose-only effect, or effect the other way, or another doubt; inactive = no such curve, though single readings can be large or run the other way. Potencies of inconclusive entries are left out as doubtful fits.
Each compound was assayed against Lysosomal alpha-glucosidase (Homo sapiens) (UniProt P10253) (assay: qHTS Assay for Inhibitors of Human alpha-Glucosidase as a Potential Chaperone Treatment of Pompe Disease). Details: purified human GAA, 4-MU-alpha-glucoside fluorescence; activity change, negative = inhibition: at 76.9 µM (top of the series) unless noted.
Method in brief: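 Activity normalized between no-enzyme (basal) and enzyme-only wells. Conditions: 4 nM human enzyme, 400 uM fluorogenic substrate, citrate/phosphate pH 5.0 with Tween-20, 20 min room temperature, compounds up to 77 uM.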
In the case of `CN=C1CC(C)(C)CC(=O)/C1=C(/O)CCCN1C(=O)c2ccccc2C1=O`, the Potency is reported as inconclusive [inhibitor, single point].
In the case of `O=C(NNC(=O)C1CC1c1ccccc1)c1ccccc1F` (stereo unspecified), the activity change, negative = inhibition is reported as inconclusive: 16.5% [activator].
With `NC(CO)C(O)c1ccc([N+](=O)[O-])cc1` (stereo unspecified) the Potency was inconclusive [inhibitor, single point].
With `CC(C)c1ccc(-c2nnn(CCC#N)n2)cc1` the activity change, negative = inhibition was inconclusive: 15.3% [activator].
With `C#CCOCCOCCOCCNc1nc(N2CCN(C(=O)Cn3cc(CCCN=C(N)N)nn3)CC2)nc(N2CCN(C(=O)[C@H](C(C)C)n3cc(CCO)nn3)CC2)n1` the Potency was inconclusive [inhibitor, full curve, poor fit].
With `COc1ccc(Nc2cc(C(=O)NCCCN3CCN(C)CC3)c3ccccc3n2)cc1OC` the Potency was inconclusive [inhibitor, single point].
For `NS(=O)(=O)c1ccc(CCNC(=O)COC(=O)C2CCCN2C(=O)c2cccs2)cc1` (stereo unspecified), the Potency was inconclusive [inhibitor, partial curve].
`COc1cccc(NC(=O)CCc2nc(-c3ccccc3F)no2)c1` was tested, and the Potency was inconclusive [inhibitor, single point].
With `CC(=O)Nc1ncc(Cc2ccc(Cl)cc2Cl)s1` the activity change, negative = inhibition was inconclusive: 16.3% [activator].
`Oc1cc(-c2ccccc2)c2ccccc2c1` was tested, and the activity change, negative = inhibition was inconclusive: 15.6% [activator].
For `CC(C)CC(=O)N1CCN(S(=O)(=O)c2ccccc2)CC1`, the Potency was inconclusive [inhibitor, single point].
In the case of `CCCN(CCO)Cc1cccc(Cl)c1`, the Potency is reported as inconclusive [inhibitor, full curve, poor fit].
With `Cc1cc(=O)oc2cc(OCc3ccc(C(=O)N4CCN(c5ccccc5)CC4)cc3)ccc12` the Potency was inconclusive [activator, partial curve].
With `CC1N(C)c2cc(NC(=O)c3cccs3)c(P(=O)(Nc3ccc([N+](=O)[O-])cc3)N3CCOCC3)cc2C1(C)C` (stereo unspecified) the activity change, negative = inhibition was inconclusive: -15.5% [inhibitor].
`COc1ccccc1NC(=O)c1ccc(NS(C)(=O)=O)cc1` was tested, and the Potency was inconclusive [inhibitor, full curve].
With `CCCn1c(/C=C/c2ccccc2)nc2ccccc21` the Potency was inconclusive [activator, partial curve].
With `CCN(CC)C(=S)NCCc1ccccc1` the activity change, negative = inhibition was inconclusive: 16% [activator].
With `COc1ccc(Cn2c(=O)[nH]c3cc(C(=O)N4CCN(Cc5ccccc5)CC4)ccc3c2=O)cc1` the Potency was inconclusive [activator, partial curve].
For `CCOC(=O)N1N=C(c2ccccc2)CC1(O)C(C)(F)F` (stereo unspecified), the activity change, negative = inhibition was inconclusive: 3.66% [activator].
With `CCSc1nc2n(n1)C(c1cccc(F)c1)C1=C(CCCC1=O)N2` (stereo unspecified) the Potency was inconclusive [activator, partial curve].
With `O=c1c(-c2ccc(F)cc2)coc2cc(O)ccc12` the Potency was inconclusive [inhibitor, single point].
In the case of `Cc1cc(NC(=O)CSc2ccc(-c3cccc([N+](=O)[O-])c3)nn2)no1`, the Potency is reported as inconclusive [inhibitor, single point].
`CC(NC(=O)COC(=O)C1CCN(S(=O)(=O)c2ccccc2C(F)(F)F)CC1)c1ccccc1` (stereo unspecified) was tested, and the Potency was inconclusive [inhibitor, single point].
For `Clc1ccc(/C=C\c2nccc3c2[nH]c2ccccc23)cc1`, the Potency was inconclusive [activator, partial curve].
`Cc1ccc(C(=O)C[n+]2ccc(-c3nnc4n3CCC4)cc2)cc1` was tested, and the Potency was inconclusive [inhibitor, full curve, poor fit].
For `CN(c1cccc(Cl)c1)S(=O)(=O)c1cccc(C(=O)Nc2ccc3c(c2)CCC3)c1`, the activity change, negative = inhibition was inconclusive: -16.3% [inhibitor].
With `CCOC(=O)c1c(-c2ccccc2)cn2c(C)cc(C)nc12` the Potency was inconclusive [activator, partial curve].
For `O=C(CCSc1ccccc1)NCC1CCCO1` (stereo unspecified), the activity change, negative = inhibition was inconclusive: -15.5% [inhibitor].
For `O=C(CNc1cccc(Cl)c1)c1ccc(Cl)cc1`, the Potency was inconclusive [inhibitor, partial curve, poor fit].
With `Cc1nn2c(N3CCN(C)CC3)cc(C(C)(C)C)nc2c1-c1ccccc1` the Potency was inconclusive [inhibitor, partial curve, poor fit].
In the case of `O=C(/C=C/c1ccccc1)NCc1cccnc1`, the activity change, negative = inhibition is reported as inconclusive: 8.11% [activator].
With `COCCCn1c(=NC(=O)c2ccncc2)c(C#N)cc2c(=O)n3cccc(C)c3nc21` the Potency was inconclusive [activator, partial curve].
In the case of `COc1ccc(S(=O)(=O)N2CCC(NC(=O)Nc3ccc(C)cc3)CC2)cc1`, the Potency is reported as inconclusive [inhibitor, single point].
With `Cc1ccc(-c2ccccc2[C@@H]2C[C@H]3CN(C)C(=O)[C@]34CCCN24)o1` the Potency was inconclusive [inhibitor, full curve].
For `O=c1c(-c2nc3ccccc3s2)cccn1Cc1ccccc1`, the Potency was inconclusive [activator, partial curve].
With `CCCc1ccc(-c2c(C)sc(N)c2C#N)cc1` the activity change, negative = inhibition was inconclusive: -20% [inhibitor].
For `C=CCc1cc(C(=O)N2CCCCC2)ccc1O`, the “activity change, negative = inhibition” value was inactive: -5.46%.
For `Cc1cc(NC(=O)Cn2c(=O)c3c(ncn3CCC(C)C)n(Cc3ccccc3)c2=O)no1`, the Potency was inconclusive [inhibitor, partial curve].
In the case of `Oc1ccc(Nc2nc(-c3ccc(O)cc3)cs2)cc1`, the “activity change, negative = inhibition” value is reported as inactive: -2.02%.
With `C=C(C)CN1CCN(S(=O)(=O)c2ccc(C)c(N(C)S(=O)(=O)c3ccc(C)cc3)c2C)CC1` the Potency was inconclusive [inhibitor, single point].
With `COc1cc(NC(C)=O)ccc1-c1cc2ccccc2oc1=O` the activity change, negative = inhibition was inconclusive: 15.4% [activator].
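For activity change, negative = inhibition in this document: plate controls were uninhibited enzyme wells for no effect and no-enzyme background for full effect.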
Potency is read from the fitted curve at half-maximal effect; tags tell the direction and shape of the fitted curve.
